In all, about 310,000 compounds went through this assay and about 2,200 (0.71%) showed an effect of 50% or more. Effects have a minus sign here. The list shows a part of the results.
These compounds were tested against human ether-à-go-go-related gene (hERG) potassium channel (human, UniProt Q12809) (assay: primary screen, population patch clamp on CHO cells stably expressing hERG).
Chain of human ether-à-go-go-related gene (hERG) potassium channel (Q12809 whole entry, looked up): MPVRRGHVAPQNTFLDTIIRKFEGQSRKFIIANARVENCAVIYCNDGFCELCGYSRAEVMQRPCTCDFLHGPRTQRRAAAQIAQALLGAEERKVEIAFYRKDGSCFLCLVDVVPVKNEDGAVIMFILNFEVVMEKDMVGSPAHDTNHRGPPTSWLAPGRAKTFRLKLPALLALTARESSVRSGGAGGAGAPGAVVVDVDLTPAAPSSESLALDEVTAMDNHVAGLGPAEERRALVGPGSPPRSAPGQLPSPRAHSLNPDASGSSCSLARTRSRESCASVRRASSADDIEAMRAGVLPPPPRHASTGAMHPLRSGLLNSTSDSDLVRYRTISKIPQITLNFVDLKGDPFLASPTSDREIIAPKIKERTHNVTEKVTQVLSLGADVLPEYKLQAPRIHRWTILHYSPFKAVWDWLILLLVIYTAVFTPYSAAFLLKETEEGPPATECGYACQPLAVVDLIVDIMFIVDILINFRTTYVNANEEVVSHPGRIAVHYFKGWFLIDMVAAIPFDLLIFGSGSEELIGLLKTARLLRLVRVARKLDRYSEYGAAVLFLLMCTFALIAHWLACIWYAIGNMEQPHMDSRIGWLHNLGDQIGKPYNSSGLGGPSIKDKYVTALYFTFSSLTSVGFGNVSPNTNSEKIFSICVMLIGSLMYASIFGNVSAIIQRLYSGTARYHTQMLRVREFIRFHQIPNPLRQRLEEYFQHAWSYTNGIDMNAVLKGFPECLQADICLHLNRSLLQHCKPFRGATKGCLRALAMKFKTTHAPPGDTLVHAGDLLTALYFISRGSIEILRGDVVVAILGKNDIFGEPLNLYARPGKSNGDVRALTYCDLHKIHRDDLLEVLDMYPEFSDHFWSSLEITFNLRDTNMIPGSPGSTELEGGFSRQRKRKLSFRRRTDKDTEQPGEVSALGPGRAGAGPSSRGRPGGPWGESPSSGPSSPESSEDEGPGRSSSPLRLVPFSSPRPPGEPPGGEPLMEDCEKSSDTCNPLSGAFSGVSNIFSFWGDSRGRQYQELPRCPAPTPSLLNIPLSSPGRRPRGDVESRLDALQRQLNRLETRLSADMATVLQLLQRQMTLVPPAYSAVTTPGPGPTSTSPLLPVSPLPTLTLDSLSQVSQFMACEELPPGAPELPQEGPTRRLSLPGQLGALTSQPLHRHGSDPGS

Structure (SMILES) | hERG current change (%, negative = inhibition) at 1uM [%]
C/C(=N\NC(=O)CCc1ccc(S(=O)(=O)N2CCOCC2)cc1)c1ccccc1Cl | 11
COc1ccc(CC(=O)Nc2nc(-c3ccccc3)c(C(C)=O)s2)cc1OC | 14.5
COCCCN1Cc2cccc(C(=O)O)c2C1=O | 2
CC1CCCN(CCCNC(=O)c2ccc(CS(=O)(=O)Cc3cccc(Cl)c3)o2)C1 (stereo not drawn) | 10.5
O=C(NCCc1c[nH]c2ccccc12)C1Cc2ccccc2CN1C(=O)c1ccco1 (stereo not drawn) | -35.1
NC(=O)c1ccc(NC(=O)COC(=O)/C=C/c2ccc3c(c2)OCO3)cc1 | 10.3
COc1cccc(NC(=O)CCN2CCN(c3ccccc3F)CC2)c1 | 5.32
COc1cc(C2=NOC(C(=O)Nc3c(C)n(C)n(-c4ccccc4)c3=O)C2)cc(OC)c1OC (stereo not drawn) | -1.14
CC(=O)Nc1ccc(NC(=O)C(C)OC(=O)c2ccc(C)s2)cc1 (stereo not drawn) | 3.72
CCOC(=O)C1CCN(S(=O)(=O)c2ccc3c(c2)NC(=O)C(C)S3)CC1 (stereo not drawn) | 10.5
CCNC(=O)NC(=O)COC(=O)CCCc1nc2ccccc2s1 | 17.4
CCOC(=O)CCC(=O)N1CCNC(=O)C1 | 13
C[C@@]12CCC=C[C@H]1[C@H](c1ccc(C(F)(F)F)cc1)N(Cc1ccccc1)C2=O | 9.17
CC(=O)c1nnn(-c2ccccc2C#N)c1C | 10.3
O=C(c1cccs1)N(c1cccc(Cl)c1)C1C=CS(=O)(=O)C1 (stereo not drawn) | 7.72
Cc1nn(C)c(C)c1NC(=O)CCCSc1nc(-c2ccco2)cc(C(F)(F)F)n1 | 9.64
Cc1cc(/C=C/C(=O)O)c(C)n1-c1ccc(Cl)cc1 | 11.1
CC(C)c1ccc(/C=C(\NC(=O)c2ccccc2)C(=O)NCCCn2ccnc2)cc1 | -63.2
COc1ccc(-n2cnnc2SCC(=O)Nc2cccnc2Cl)cc1 | 6.41
Cc1cc(Cl)c(OCCOCCN2CCNCC2)c(Cl)c1.O=C(O)C(=O)O | 1.15
S=C(NCCc1ccccn1)Nc1ccc(Cl)cc1 | 4.57
O=C(Nc1c(-c2ccccc2)nc2ccccn12)c1cccc(F)c1 | 13.2
COC(=O)CN1C(c2cccc(Cl)c2)=Nc2ccc(Cl)cc2C1c1ccccc1 (stereo not drawn) | 6.57

Structure (SMILES) | hERG current change (%, negative = inhibition) at 1uM [%]
COc1ccc(C(=O)OCC(=O)Nc2ccc(F)c(F)c2)cc1OC | -3.19
CC1=C(c2ccccc2)C(=S)NC(C)(C)C1 | 0.0863
N#Cc1ccccc1OCC(=O)NC(=O)NCc1ccco1 | 3.34
CC(=O)N1N=C(c2ccc(C)o2)CC1c1ccc(Br)cc1 (stereo not drawn) | 14.2
CCC(C(=O)Nc1cc(C)on1)c1ccccc1 (stereo not drawn) | 8.48
Br.CC(C)CCC1CC(CSC(=N)N)OC1=O (stereo not drawn) | 3.96
CC(C)CNc1nc(N)c([N+](=O)[O-])c(N2CCCCCC2)n1 | 10.6
COc1ccccc1N1CCN(C(=O)c2ccc(Cl)c(S(=O)(=O)N3CCCC3)c2)CC1 | -2.66
Cc1cc(C(=O)NCCc2ccc(Cl)cc2)n(-c2ccccc2)n1 | 12.1
O=C(Nc1ccc(F)cc1Cl)C1CCN(C(=O)Nc2ccccc2)CC1 | 9.96
Cl.Clc1cccc(OCCN2CCCC2)c1 | 11.6
Cc1ccc(OCC(=O)OCC(=O)NC2CCCC2)cc1C | 5.17
CC(=O)Nc1ccc(S(=O)(=O)N2CCN(c3cc(C)ccc3C)CC2)cc1 | 7.73
O=c1[nH]c2c(s1)C(c1ccccc1)C1C3CCC(C3)C1S2 (stereo not drawn) | 9.85
CCCCn1c(N)c(N(CCC(C)C)C(=O)c2cc(CC)c(C)s2)c(=O)[nH]c1=O | 8.95
CC(=O)N1CC2(C)CN(C(C)=O)CC(C)(C1)C2=O | 5.55
COc1ccccc1C(=O)OCCCN=C1NS(=O)(=O)c2ccccc21 | 16
CCc1nnc(NC(=O)/C=C/c2ccc(C)o2)s1 | -3.68
Cc1cccc(C(=O)N[C@H](C(=O)Nc2nccs2)C(C)C)c1 | 20
Cc1ccsc1/C=N/NC(=O)c1sccc1C | 16.2
CCOc1cc(C(=O)NCc2ccncc2)cc(OCC)c1OCC | 2.99
CC1(C)CC(=O)C2=C(C1)Oc1ncn(CCO)c(=N)c1C2c1ccccc1 (stereo not drawn) | -14.9
COc1ccc(CC2(CO)CCN(S(=O)(=O)N(C)C)CC2)cc1 | 14.7

Structure (SMILES) | hERG current change (%, negative = inhibition) at 1uM [%]
COc1ccc(-c2nc(O)c3cnccn23)cc1 | 10.4
O=C(Nc1ccsc1C(=O)O)c1ccccc1 | 18.7
CCc1ccc(CNC(=O)CCC(=O)n2ncc3cc(C)ccc32)cc1 | 30.9
Cc1ccc(N=C2NC(=O)/C(=C/c3cccnc3)S2)cc1C | 13.7
CCN(CC)CCN(C(=O)c1ccc(S(=O)(=O)N(C)C2CCCCC2)cc1)c1nc2ccc(OC)cc2s1.Cl | 9.61
CCc1ccccc1N(CC(=O)NC1CCCC1)C(=O)CNC(=O)c1cccs1 | 7.96
CCOC(=O)C1CCCN(c2c(NCc3ccco3)c(=O)c2=O)C1 (stereo not drawn) | 4.76
COc1ccc(NC(=O)CSC(C)c2nc3ccccc3c(=O)[nH]2)cc1 (stereo not drawn) | 11.2
CCOc1ccc(/C=N/NC(=S)Nc2c(C)cccc2C)cc1 | 5.7
O=C(COC(=O)CSCC(=O)N1CCCCC1)Nc1ccc(Cl)cc1 | 9.28
Brc1ccccc1-c1nnc2sc(-c3ccc4c(c3)OCCO4)nn12 | 2.14
COc1ccc(Cl)cc1N(CC(=O)NCC(C)C)S(=O)(=O)c1ccc(C)c([N+](=O)[O-])c1 | 7.33
Cc1cccc(OC(C)C(=O)NC2CCS(=O)(=O)C2)c1C (stereo not drawn) | 2.25
CCc1noc(C)c1C(=O)Nc1cccc2ncccc12 | 17.9
Cn1ncc2c(Nc3ccc(-c4ccccc4)cc3)ncnc21 | 6.23
CCOC(=O)c1cnc(SCc2ccccc2)nc1N | 2.64
COc1ccccc1C(=O)Nc1ccc(S(=O)(=O)N2CCCCC2)cc1 | -3.45
O=S(=O)(Nc1ccc(F)cc1)c1ccc(NC(=S)Nc2ccccc2)cc1 | 2.95
CCOC(=O)c1cncc(NC(=O)c2ccccc2)c1 | 8.36
Cn1nc(C(F)(F)F)c(C(=O)Nc2cccc(C(F)(F)F)c2)c1SCc1ccc(Cl)cc1 | -1.14
COc1ccc(OC)c(Nc2nc3nonc3nc2N2CCCCC2)c1 | 12.9
COC(=O)c1ccc(CN2CCC(n3nccc3NC(=O)C3CC3)CC2)cc1 | -6.68
CCN(CC)C(=O)/C(=C\c1ccc(Br)cc1)NC(=O)c1ccccc1OC | 3.5

Structure (SMILES) | hERG current change (%, negative = inhibition) at 1uM [%]
CCOC(=O)c1c(C)[nH]c(C)c1C(=O)CSc1ncccn1 | -0.18
CCOc1ccccc1CNC(=O)c1ccc(NC(=O)C2=C(C)OCCS2)cc1 | 20.1
CCNC(=O)Cc1ccc(S(=O)(=O)N2CCOCC2)s1 | 8.11
COc1ccccc1NS(=O)(=O)c1cc(NC(=S)NCC2CCCO2)ccc1C (stereo not drawn) | 23.2
Cc1ccccc1OCC(=O)OCC(=O)c1c[nH]c2ccccc12 | 11.2
COc1ccc2cc3cc(C(=O)NCc4cccnc4)oc3nc2c1 | -1.47
CC(C)Oc1ccc(C(=O)NC2(C(F)(F)F)NC(=O)N(CCCc3ccccc3)C2=O)cc1 (stereo not drawn) | -3.59
CN(CC(=O)NC(c1ccccc1)c1ccccc1)Cc1nc2ccccc2c(=O)[nH]1 | -9.92
O=C(Nc1ccccc1OC(F)F)c1ccc(S(=O)(=O)N2CCOCC2)cc1 | 12.5
COc1ccc(-c2ccc(NS(=O)(=O)c3cccc([N+](=O)[O-])c3)cc2)nn1 | 12.5
O=C(COc1ccccc1)OCc1cc2ccccc2[nH]c1=O | 6.17
COc1cc(C(C(=O)NC2CCCCC2)N(C(=O)Cc2c[nH]c3ccccc23)c2ccc(C)cc2)cc(OC)c1OC (stereo not drawn) | 9.08
OCc1nc2ccccc2n1CCc1ccccc1 | 13.9
CCc1cccc(NC(=O)CCNS(=O)(=O)c2ccc3[nH]c(=O)oc3c2)c1 | 14.7
Cc1cccc(CNc2ncnc3ccc(-c4ccoc4)cc23)c1 | 17
CCCn1nnc(NC(=O)c2cccc(OCC)c2)n1 | -1.29
COc1ccc(-c2oc3ncnc(N)c3c2-c2ccccc2)cc1 | 11.1
COc1ccc(C(=O)NC(=S)Nc2ccc3[nH]c(=O)[nH]c3c2)cc1 | 13
NS(=O)(=O)c1ccc(CCNC2CC(=O)N(CCc3ccccc3)C2=O)cc1 (stereo not drawn) | 4.99
CCCN(CC(=O)Nc1ccccc1C)C(=O)c1ccc(C)c(S(=O)(=O)N2CCCCC2)c1 | 12.6
CCOc1ccc(-n2ccc(=O)c(C(=O)O)n2)cc1 | 20.2
